Assay results published in the supplement of paper PMC10338343.
± gives the standard deviation. The entries are a selection whose mix differs from that of the whole data set.

Tested on: MIWI (PIWIL1) piRISC loaded with L1MC piRNA (30 nt)
Test: pre-steady-state target cleavage rate (min^-1); MIWI and MILI are mouse PIWI proteins and EfPiwi is from a freshwater sponge; tags in brackets are library labels; higher = faster piRNA-guided slicing of the target
Conditions: guide: L1MC piRNA 5'p-UAACUAAAUACUAUGCAAGCUGUAGGUCCU
Method in brief: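 Using HEPES–potassium acetate buffer at 33 °C, 1 nM active affinity-purified piRISC with a single synthetic guide was mixed with 0.1 nM transcribed, DNA-blocked target RNA library for 0–8 or 0–960 min, with or without 500 nM GTSF1 partner protein. Uncleaved targets were sequenced and normalised to depth and to weakly complementary targets, and three trials were pooled with k3 capped at 0.0001 min^-1. A burst-and-steady-state fit gave the pre-steady-state cleavage rate.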

[1] = auxiliary factor: 500 nM mouse GTSF1
[2] = auxiliary factor: none (no GTSF1)

| Sequence | pre-steady-state target cleavage rate [1] | pre-steady-state target cleavage rate [2] |
| --- | --- | --- |
| UCCUGGAUCAGCUUGCACAGUAUUUAGUUA | 0.959 ± 0.035 | 0.0607 ± 0.013 |
| UCCUGGAUCAGCUUGCAUUGUAUUAAGUUA | 0.227 ± 0.02 | 0.00832 ± 0.0034 |
| UGGACCAACAGCUAGCAUAGUAUUUAGUUA | 1.36 ± 0.059 | 0.0347 ± 0.0073 |
| UCCUGCUACUGCUUGCAUAGAAUUUAGUUA | 0.383 ± 0.03 | 0.019 ± 0.0057 |
| UCCUGGAACAGCUUGCUAUGUAUUUAGUUA | 0.0729 ± 0.011 | 0.00814 ± 0.0024 |
| UCCUGGAUGAGCUUGCAUAGAAUUUAGAUA | 0.0718 ± 0.018 | 0.00652 ± 0.0025 |
| UCCUGGAAGACCUUGCAUAGUAUUUAGUUA | 0.399 ± 0.034 | 0.0115 ± 0.0036 |
| UCCUGGAUCGAGCUUGCAUAGUAUUUAGUUA | 0.817 ± 0.043 | 0.0319 ± 0.0068 |
| AGGACCAACAGCUUGCAUAGUAUUUUCAAA | 0.376 ± 0.047 | 0.00778 ± 0.0043 |
| UCCUGGAACAGCUAGCAUAGUAUUUUGUUA | 0.546 ± 0.04 | 0.00902 ± 0.0027 |
| UGGACCUACAGCUUGCAUAGUAUUUUCUUA | 0.171 ± 0.027 | 0.0216 ± 0.0055 |
| UCGACCUACAGCUUGCAAACUAUUUAGUUA | 0.327 ± 0.021 | 0.00749 ± 0.0023 |
| AGGACCUACAGCUUGCAUAGUAUAAAGUUA | 0.563 ± 0.046 | 0.0366 ± 0.0098 |
| AGGACCUAUAGCUUGCAUAGUAUUUAGUUA | 1.06 ± 0.053 | 0.0641 ± 0.012 |
| AGCACCUUCAGCUUGCAUAGUAUUUAGUUA | 0.711 ± 0.089 | 0.0548 ± 0.014 |
| AGGACCUACAGCUUGCAUAGUAUUUAGUCA | 0.838 ± 0.055 | 0.0761 ± 0.017 |
| AGGACCUACAGCUUGCAUACUAAUUAGUUA | 0.288 ± 0.03 | 0.0117 ± 0.0027 |
| AGGUCCUACAGCUUGCAUAGAAUUUAGUUA | 0.501 ± 0.03 | 0.0247 ± 0.0074 |
| UCCACCUACAGCUUGCAUAGUAUUUAAUUA | 0.308 ± 0.043 | 0.0215 ± 0.0049 |
| UCGACCUUCAGCUUGGAUAGUAUUUAGUUA | 1.49 ± 0.05 | 0.0525 ± 0.0074 |

| Sequence | pre-steady-state target cleavage rate [1] | pre-steady-state target cleavage rate [2] |
| --- | --- | --- |
| UGGACCAUGAGCUUGCAUAGUAUUUUCAAA | 0.14 ± 0.023 | 0.00304 ± 0.0023 |
| AGGACCUACAGCUUGGAUAGUAUUUUGUUA | 1.05 ± 0.077 | 0.0416 ± 0.0083 |
| UGGACCUACUGCUUGCAUAGAAUUUAGUUA | 0.328 ± 0.022 | 0.0199 ± 0.0058 |
| UCCUGCUACAGCUUGCAUAGUAUAUAGAUA | 0.201 ± 0.051 | 0.00412 ± 0.0027 |
| UCCUCCUAGAGCUUGCAUAGUAUUAAGUUA | 0.732 ± 0.078 | 0.0122 ± 0.0021 |
| UCCUGGAUGUGCUUGCUUAGUUUUUAGUUA | 0.00783 ± 0.0044 | 0.005 ± 0.0029 |
| UCCUGGAUCACCUUGCAUAGAAUUUAGUUA | 0.0649 ± 0.022 | 0.00594 ± 0.0019 |
| UCGACCUACAGCUUGCAAAGUAUUUAGUAA | 0.99 ± 0.053 | 0.0245 ± 0.0048 |
| UCCUGGAUGUGCUUGCUUAGUAUUUACUUA | 0.0606 ± 0.011 | 0.0187 ± 0.0051 |
| UCCACCUAAGCUUGCAUAGUAUUUAGUUA | 0.428 ± 0.037 | 0.025 ± 0.0049 |
| UCCUCCUACAGCUUGCAUUGUUUUUAGUUA | 0.0961 ± 0.01 | 0.00646 ± 0.0013 |
| UCGACCUAGAGCUUGCAUAGUAUAUAGUUA | 0.697 ± 0.061 | 0.021 ± 0.004 |
| UGGACCUAGAGCUUGCAUAGUAUUUUGUUA | 0.663 ± 0.061 | 0.0327 ± 0.0058 |
| UCCUGGAACAGCUUGCUAAGUAUUUAGUUA | 0.0878 ± 0.01 | 0.00736 ± 0.003 |
| UCCUGGUACACCUUGCAAAGUAUUUAGUUA | 0.183 ± 0.035 | 0.00933 ± 0.0023 |
| UCCUGGAUGAGCUUGCAUACUAUUAAGUUA | 0.0488 ± 0.0097 | 0.00664 ± 0.0032 |
| UCCUGGAUGUCCUUGCAUAGUAUUGUAGUUA | 0.0352 ± 0.009 | 0.00527 ± 0.0026 |
| UGGACGUACAGGUUGCAUAGUAUUUAGUUA | 0.981 ± 0.046 | 0.0521 ± 0.0089 |
| UCCUCCUACAGCUUGCAUAGUAUUUACUUA | 0.383 ± 0.042 | 0.0348 ± 0.0074 |
| AGGACGAACAGCUUGCAUAGUAUUUUCAAA | 0.233 ± 0.04 | 0.00425 ± 0.0027 |

| Sequence | pre-steady-state target cleavage rate [1] | pre-steady-state target cleavage rate [2] |
| --- | --- | --- |
| UCCUCCUACAGCUUGCAUAGUCAUUUAGUUA | 0.086 ± 0.027 | 0.00373 ± 0.0024 |
| UCCUGGAACAGCUUGCAUAGUAUAUUGUUA | 0.303 ± 0.036 | 0.014 ± 0.0052 |
| AGGACCUACAGCUUGCAUACUUUUUAGUUA | 0.0575 ± 0.011 | 0.00783 ± 0.0023 |
| UCCUGGUACUGCUUGCAUUGUAUUUAGUUA | 0.182 ± 0.031 | 0.0142 ± 0.0034 |
| AGGACCUACUGCUUGCAUUGUAUUUAGUUA | 0.892 ± 0.03 | 0.0384 ± 0.008 |
| UCCUGGAUCACGCUUGCAUAGUAUUUAGUUA | 0.994 ± 0.044 | 0.0429 ± 0.0086 |
| UCCACUUACAGCUUGCAUAGUAUUUAGUUA | 1.17 ± 0.034 | 0.0668 ± 0.0094 |
| AGGACCUUGUGCUUGCAUAGUAUUUACAAA | 0.0799 ± 0.015 | 0.00564 ± 0.0019 |
| AGGACCUACAGCUUGCAUAGUAUUAAGAUA | 0.374 ± 0.057 | 0.00793 ± 0.003 |
| UCCUCCGACAGCUUGCAUAGUAUUUAGUUA | 0.911 ± 0.03 | 0.0525 ± 0.0085 |
| UCCACCUAGAGCUUGCAUAGUAUUUACUUA | 0.358 ± 0.049 | 0.0215 ± 0.0036 |
| UCCUGGUACAGCUUGCAUAGUAUUGAGUUA | 0.317 ± 0.051 | 0.0326 ± 0.007 |
| UCCUGGAUGAGCUAGCAUAGUAUUUAGUUA | 0.617 ± 0.05 | 0.0107 ± 0.0036 |
| UCCUGCUACAGCUUGCAUAGUAUUUAGUCA | 0.404 ± 0.05 | 0.0157 ± 0.0035 |
| UGGACCUACAGCUUGCAUUGUAUUUAGUAA | 0.559 ± 0.035 | 0.025 ± 0.0056 |
| AGGACCUACAGCUUGCAUAGUAUAUAGAAA | 0.394 ± 0.067 | 0.00411 ± 0.0035 |
| UCCUGGAUCAGCUUGCAUACUAAUUAGUUA | 0.0563 ± 0.0091 | 0.00771 ± 0.0023 |
| UCCUGGUACAGCUUGCAUUGUAUUUAGUUA | 0.394 ± 0.032 | 0.0216 ± 0.0049 |
| UCGACCUACAGCUUGCAUAGUAUUAAGUUA | 0.761 ± 0.04 | 0.0317 ± 0.0061 |
| UCCUGGUACAGCUUGCAUAGAAUUUAGAUA | 0.0786 ± 0.026 | 0.00495 ± 0.0029 |
